# Measured values published in publication PMC4336329 (PLoS ONE, 2015).
# Screen size: about 310,000 compounds; about 14,000 (4.5%) showed an effect of 50% or more. The effect is printed as a negative number. The list shows a part of the results.
# Target: human ether-à-go-go-related gene (hERG) potassium channel (human, UniProt Q12809)
# Experiment: primary screen, population patch clamp on CHO cells stably expressing hERG
# 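Note: peak tail current of the secondary pulse compared with the same well before compound.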
# Chain of human ether-à-go-go-related gene (hERG) potassium channel (Q12809 whole entry, looked up): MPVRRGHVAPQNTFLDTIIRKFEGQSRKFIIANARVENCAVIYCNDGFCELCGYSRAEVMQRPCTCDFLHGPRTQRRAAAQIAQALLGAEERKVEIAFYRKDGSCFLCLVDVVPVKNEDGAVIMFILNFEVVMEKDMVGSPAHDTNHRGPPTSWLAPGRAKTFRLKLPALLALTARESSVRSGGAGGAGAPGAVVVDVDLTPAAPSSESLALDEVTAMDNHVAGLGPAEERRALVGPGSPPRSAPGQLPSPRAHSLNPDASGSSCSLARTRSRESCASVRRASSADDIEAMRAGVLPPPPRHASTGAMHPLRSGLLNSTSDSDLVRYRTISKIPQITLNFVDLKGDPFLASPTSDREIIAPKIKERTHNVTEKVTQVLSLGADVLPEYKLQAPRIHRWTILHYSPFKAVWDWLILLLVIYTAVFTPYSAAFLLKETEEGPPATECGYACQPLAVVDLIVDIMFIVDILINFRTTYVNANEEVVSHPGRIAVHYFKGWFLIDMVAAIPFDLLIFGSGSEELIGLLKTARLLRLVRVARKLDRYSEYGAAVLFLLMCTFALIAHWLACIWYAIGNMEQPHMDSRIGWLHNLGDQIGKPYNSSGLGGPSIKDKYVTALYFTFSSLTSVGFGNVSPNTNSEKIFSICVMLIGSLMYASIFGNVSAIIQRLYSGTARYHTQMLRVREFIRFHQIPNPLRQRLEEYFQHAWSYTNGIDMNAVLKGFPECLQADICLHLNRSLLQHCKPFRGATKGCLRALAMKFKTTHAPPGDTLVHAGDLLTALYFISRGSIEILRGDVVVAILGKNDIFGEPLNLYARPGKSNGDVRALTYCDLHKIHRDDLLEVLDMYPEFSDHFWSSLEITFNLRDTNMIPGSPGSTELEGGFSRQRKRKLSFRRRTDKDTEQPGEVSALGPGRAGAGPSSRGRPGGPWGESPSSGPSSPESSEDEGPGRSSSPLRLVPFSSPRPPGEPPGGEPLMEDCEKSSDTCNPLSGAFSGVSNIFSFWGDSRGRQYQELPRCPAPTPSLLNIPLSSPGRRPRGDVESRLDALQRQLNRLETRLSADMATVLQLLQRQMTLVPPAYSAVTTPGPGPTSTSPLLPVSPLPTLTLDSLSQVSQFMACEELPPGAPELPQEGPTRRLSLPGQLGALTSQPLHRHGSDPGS
row,Compound,"hERG current change (%, negative = inhibition) at 10uM"
1,Cc1ccccc1NC(=O)CSc1ccc(-c2ccc(-n3cccn3)cc2)nn1,4.06%
2,Cc1ccc(CN(CC(=O)NC(C)(C)C)C(=O)CNC(=O)c2cccs2)cc1,-6.51%
3,CCCCOC(=O)c1ccc(NC(=O)c2c(N)n(C)c(=O)[nH]c2=O)cc1,14.7%
4,Cc1cccc(C(=O)NC(=S)NC(C)c2ccccc2)c1 (centres unmarked),13.9%
5,O=C(COC(=O)c1ccc(O)cc1)NCC1COc2ccccc2O1 (centres unmarked),-3.35%
6,O=C(CN1CCOCC1)Nc1nc2ccc([N+](=O)[O-])cc2s1,-23%
7,O=C(CN1CCOCC1)Nc1ccccc1Sc1ccccc1,-31.3%
8,O=C(Nc1cccc(O)c1)c1cc(-c2cccs2)on1,1.95%
9,O=C(Oc1oc(-c2ccco2)nc1C=Nc1ccccc1)c1ccco1,24.2%
10,CC(C)(C)c1ccc(S(=O)(=O)NCc2ccccn2)cc1,-6%
11,CCCn1c(=O)c2sccc2n2c(CCCC(=O)NC3CCN(Cc4ccccc4)CC3)nnc12,-10.9%
12,O=C(CCc1nc2ccccc2s1)OCc1ccccc1F,5.65%
13,Cc1cc(N(C)/N=C/c2ccccc2)nc(-c2ccccc2O)n1,19.5%
14,Cc1nc(SCCc2ccccc2)[nH]c(=O)c1C,19.6%
15,CCC(=O)Oc1ccc(C(=O)Nc2ccc3c(c2)C(=O)N(C2CCCCC2)C3=O)cc1,24%
16,Cc1ccc(S(=O)(=O)NCc2ccncc2)cc1C(=O)NCC(C)C,-6.46%
17,CCCOc1ccc(C(O)(CCC)CCN2CCCCC2)cc1 (centres unmarked),-56.1%
18,CCOC(=O)N1CCN(C(=O)c2cc3c(=O)n4cccc(C)c4nc3s2)CC1,-9.84%
19,CCO[C@H]1OC(C(=O)N2CCN(Cc3ccccc3)CC2)=C[C@@H](C2CCCCC2)[C@@H]1CCCO,-5.5%
20,O=c1cc2c(n[nH]1)-c1ccccc1CC2,14.3%
21,Cn1c(=O)n(C)c2cc(/C=N/NC(=O)c3ccc(Cl)cc3)ccc21,6.84%
22,CC1CCCN(C(=O)Cn2nnc(-c3cccnc3)n2)C1 (centres unmarked),-1.24%

row,Compound,"hERG current change (%, negative = inhibition) at 10uM"
1,CCCN(Cc1nnc(-c2cccs2)o1)C(=O)CN1C(=O)NC2(CCC(C)CC2)C1=O (centres unmarked),-49.1%
2,CCOC(=O)N1CCN(c2cc(C)c(C(C)=O)cc2F)CC1,2.71%
3,CC(=O)c1cccc(S(=O)(=O)NCCC(=O)O)c1,54%
4,COc1ccc(NS(=O)(=O)c2ccc3oc(SCC(N)=O)nc3c2)cc1,12.8%
5,CCOC(=O)C1(C)Oc2cccnc2NC1=O (centres unmarked),22.6%
6,CCOCCCNC(=O)C(NC(=O)c1ccc(NC(C)=O)cc1)c1ccccc1 (centres unmarked),8.43%
7,COc1cccc(CCNC(=O)CC2C(=O)NCCN2Cc2ccc(C)o2)c1 (centres unmarked),15.7%
8,NC(=O)CNC(=O)[C@@H]1CC2(CC(c3ccccc3)=NO2)CN1C(=O)c1ccc(Br)cc1 (some centres unmarked),3.82%
9,CCC(=O)N1CCN=C1SCc1ccc(Cl)cc1,-30.1%
10,COc1ccc([C@H]2CC(=O)C=C(c3cccc(CO)c3)C2)cc1,-59.3%
11,Nc1c(Cl)cc(C(=O)c2c3ccc(C(F)(F)F)cc3[n+]([O-])n2CCC[NH3+])cc1Cl.[Cl-],-57.6%
12,CCN1CC(CNC(=O)c2ccc3nc(Cc4cccc(Cl)c4)oc3c2)CC1=O (centres unmarked),-19.9%
13,O=C(NCC(=O)N(c1ccccc1F)C(C(=O)NCC1CCCO1)c1ccccc1)c1ccco1 (centres unmarked),-2.56%
14,COc1ccc(-n2ncc3c2CC(C)(C)CC3NC(=O)CCn2cncn2)cc1 (centres unmarked),-42.2%
15,CN(CCC#N)C(=O)COC(=O)C1c2ccccc2Oc2ccccc21,-8.84%
16,Cc1cc(C(=O)CSc2nnc(-c3ccc4c(c3)OCO4)o2)c(C)n1-c1ccc(F)cc1,-6.24%
17,CCOC(=O)C1CCN(C(=O)c2ccc(CNS(=O)(=O)c3ccc(OC)cc3)cc2)CC1,-24.6%
18,CCNc1c(NC(=O)C2CCC(C)CC2)c(=O)oc2ccccc12 (centres unmarked),6.69%
19,CN(C)CCCNC(=O)/C(=C\c1ccc(-c2cccc([N+](=O)[O-])c2)o1)NC(=O)c1ccccc1,-81.2%
20,O=C(Nc1ccccc1N1CCCC1)C1CCN(S(=O)(=O)c2cccc(C(F)(F)F)c2)CC1,-16.8%
21,CC(=O)Nc1ccc(NC(=O)CSc2ccc(C(F)(F)F)cc2[N+](=O)[O-])cc1,10.8%
22,CCOc1ccc(NC(=O)CC2NCCNC2=O)cc1 (centres unmarked),2.47%

row,Compound,"hERG current change (%, negative = inhibition) at 10uM"
1,COc1ccccc1N(CC(=O)N1CCOCC1)S(C)(=O)=O,10.7%
2,CN1CCN(C(=O)NCC23CC4CC(CC(C4)C2)C3)CC1,4.58%
3,CCOc1ccc(NC(=O)CS(=O)CC(=O)Nc2cccnc2)cc1 (centres unmarked),21.3%
4,Cc1cccc(/C(N)=N/OC(=O)c2ccc(Cl)cc2Cl)c1,8.46%
5,Cc1ccc(OCC(=O)NCCCNC(=O)c2ccco2)cc1,0.583%
6,O=C(N/N=C/c1ccccc1F)c1ccccc1OCc1ccccc1,9.98%
7,Cc1ccc(/C=C2\Sc3ccccc3C2=O)s1,3.38%
8,Cc1nn2c(C)c(C(=O)Nc3ccccc3)cnc2c1-c1ccccc1,0.0991%
9,C/C(=N\Nc1ccccn1)c1ccc(Br)s1,-7.5%
10,C#CCOCCOCCOCCNc1nc(N2CCN(C(=O)C(Cc3cc4ccccc4[nH]3)n3cc(C(N)C(C)CC)nn3)CC2)nc(N2CCN(C(=O)C(Cc3cc4ccccc4[nH]3)n3cc(C(N)C(C)CC)nn3)CC2)n1.Cl (centres unmarked),5.26%
11,Cc1ccc(CN(C)C(=O)c2ccc3c(c2)NC(=O)CS3)o1,-17.2%
12,O=C1C2C3C=CC(CC3)C2C(=O)N1/N=C/c1c(O)ccc2ccccc12 (centres unmarked),0.488%
13,Cc1cc2c3c([nH]c2cc1S(=O)(=O)NCCCOC(C)C)CC(C)(C)CC3=O,-10.6%
14,CS(=O)(=O)N(CC(=O)N1CCN(c2ccccc2F)CC1)c1cccc(C(F)(F)F)c1,-36.4%
15,COc1cccc(C2C(C#N)=C(N)Oc3c2oc(CO)cc3=O)c1OC (centres unmarked),0.613%
16,Nc1ccc(NC(=O)NC2CCCCC2)cc1[N+](=O)[O-],15.9%
17,N#CC(C#N)=C1NC(N)=C(C#N)C(c2ccccc2)=C1C#N,11.5%
18,CCSCCOC(=O)C1=C(C)NC(=O)NC1c1cccc(OC)c1OC (centres unmarked),-0.0744%
19,COc1cccc(/C=C/c2nc(S(=O)(=O)c3ccccc3)c(N(C)C)o2)c1,-34.7%
20,COc1ccc(-c2[nH]c(-c3ccc(SC)cc3)nc2SCC(=O)Nc2nccs2)cc1,1.84%
21,O=C(NCCCCCc1nc2ccccc2[nH]1)c1ccccc1Cl,-6.43%
22,CCOc1ncccc1C(=O)OCc1c(Cl)cccc1Cl,4.68%

row,Compound,"hERG current change (%, negative = inhibition) at 10uM"
1,Cc1nc(NC(=O)COC(=O)c2ccc(S(=O)(=O)N3CCc4ccccc4C3)cc2)c(Cl)cc1Cl,2.58%
2,COc1ccc(Cl)cc1Nc1nnc(-c2ccncc2)s1,12.3%
3,O=C(COC(=O)Cc1ccsc1)NCC12CC3CC(CC(C3)C1)C2,7.99%
4,COC(=O)C(O)(c1c(C)[nH]c2ccccc12)C(F)(F)F (centres unmarked),5.86%
5,C=CCNC(=O)/C(C#N)=C/c1ccc(C)o1,30.9%
6,CCOC(=O)N1CCN(C(=O)c2cc3sccc3n2C)CC1,-8.4%
7,COC(=O)CN1C(=O)C(O)=C(C(C)=O)C1c1ccc([N+](=O)[O-])cc1 (centres unmarked),1.33%
8,Cc1c(C(=O)NCCC2=CCCCC2)oc2ccc(S(=O)(=O)N3CCC4(CC3)OCCO4)cc12,0.446%
9,CC(C)(C)c1ccc(C(=O)N2CCC(C(=O)N3CCCCC3)CC2)cc1,-3.01%
10,Cc1cc(N2C(=O)C(O)=C(C(=O)c3cc4ccccc4o3)C2c2cccc(Br)c2)no1 (centres unmarked),11.7%
11,COc1ccc(NS(=O)(=O)c2ccc(S(=O)(=O)N3CCCC3)cc2)cc1Cl,-28.7%
12,CCCCN(C(=O)CCC(=O)Nc1cc(C)on1)C(C(=O)NC1CCCC1)c1ccc(F)cc1 (centres unmarked),4.03%
13,Nc1c(-c2cccc([N+](=O)[O-])c2)nc2ccccn12,-18.5%
14,CN1c2ccsc2C(O)=C(C(=S)Nc2ccccc2)S1(=O)=O,10.8%
15,O=S(=O)(Nc1cccc(C(F)(F)F)c1)c1cccnc1,5.14%
16,CNC(=O)N(O)C1N(/N=C/c2ccccc2O)C(=S)SC1(C)C (centres unmarked),5.49%
17,O=[N+]([O-])c1cccc(-c2ccc(SCc3ccccn3)nn2)c1,-6.25%
18,CN1CCN(C(N)=NC(=O)c2ccccc2)CC1,6.76%
19,CCOc1cccc(C(=O)N/N=C/c2ccoc2)c1,12.2%
20,O=c1[nH]c(CN2CCN(c3ccccc3O)CC2)nc2ccccc12,-9.33%
